# Test results: PMC4336329 (PLoS ONE, 2015)
# Out of some 310,000 compounds screened, about 2,200 (0.71%) showed an effect of 50% or more. The effect is printed as a negative number. Some of the results follow.
# Biological target: human ether-à-go-go-related gene (hERG) potassium channel (human, UniProt Q12809)
# Assay: primary screen, population patch clamp on CHO cells stably expressing hERG
# Sequence of human ether-à-go-go-related gene (hERG) potassium channel (Q12809 whole entry, looked up): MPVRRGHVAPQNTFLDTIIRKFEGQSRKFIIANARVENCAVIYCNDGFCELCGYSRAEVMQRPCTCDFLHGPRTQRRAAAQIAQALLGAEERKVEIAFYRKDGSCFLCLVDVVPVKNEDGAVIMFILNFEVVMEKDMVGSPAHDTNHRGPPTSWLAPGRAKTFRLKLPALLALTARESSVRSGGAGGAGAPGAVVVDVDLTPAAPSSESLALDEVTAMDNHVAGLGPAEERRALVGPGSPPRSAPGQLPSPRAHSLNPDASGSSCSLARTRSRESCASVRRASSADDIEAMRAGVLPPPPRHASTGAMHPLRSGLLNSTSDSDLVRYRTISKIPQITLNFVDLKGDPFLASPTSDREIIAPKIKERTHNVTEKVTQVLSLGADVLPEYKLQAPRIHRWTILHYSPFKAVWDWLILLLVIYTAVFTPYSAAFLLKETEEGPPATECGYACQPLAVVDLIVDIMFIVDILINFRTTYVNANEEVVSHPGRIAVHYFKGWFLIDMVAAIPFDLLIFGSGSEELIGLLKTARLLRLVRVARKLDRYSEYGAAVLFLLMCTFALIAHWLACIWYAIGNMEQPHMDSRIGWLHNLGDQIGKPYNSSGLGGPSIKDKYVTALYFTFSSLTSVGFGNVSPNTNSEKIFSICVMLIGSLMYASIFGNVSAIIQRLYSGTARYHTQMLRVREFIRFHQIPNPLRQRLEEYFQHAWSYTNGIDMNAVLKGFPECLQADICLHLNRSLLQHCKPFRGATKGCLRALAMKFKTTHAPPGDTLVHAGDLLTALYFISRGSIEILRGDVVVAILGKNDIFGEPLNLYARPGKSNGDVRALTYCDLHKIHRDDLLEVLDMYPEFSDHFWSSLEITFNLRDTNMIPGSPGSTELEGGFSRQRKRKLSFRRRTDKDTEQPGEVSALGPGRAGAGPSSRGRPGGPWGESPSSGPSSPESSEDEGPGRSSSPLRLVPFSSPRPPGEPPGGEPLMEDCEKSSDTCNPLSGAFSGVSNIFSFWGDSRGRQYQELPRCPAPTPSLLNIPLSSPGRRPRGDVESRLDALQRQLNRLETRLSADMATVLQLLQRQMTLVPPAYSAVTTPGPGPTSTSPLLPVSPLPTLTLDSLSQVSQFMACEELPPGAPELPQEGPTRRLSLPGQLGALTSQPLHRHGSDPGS
row,SMILES,"hERG current change (%, negative = inhibition) at 1uM [%]"
1,COc1ccccc1N1C(C)=CC(=C(C#N)c2nc3ccccc3s2)C=C1C,7.61
2,COc1ccc(N2C(=O)N[C@@H](Cc3ccccc3)C2=O)cc1OC,16.7
3,Cc1ccc(S(=O)(=O)N2CCN(C(=O)c3ccc(N4CCCCC4)c([N+](=O)[O-])c3)CC2)cc1,7.96
4,COc1cc(C#N)ccc1OCC(=O)c1ccc2c(c1)OCCO2,-20
5,O=C(Nc1cccnc1)OC1CCCCC1,2.56
6,N=c1c(S(=O)(=O)c2ccc(Cl)cc2)cc2c(=O)n3ccccc3nc2n1Cc1ccco1,14
7,C/C(=N\NC(=O)c1ccc(O)cc1)c1cc2ccccc2o1,-2.13
8,COc1ccc(CNc2ncnc3ccccc23)cc1,14.8
9,CCc1ccc(-c2cc(C(=O)N/N=C/c3c[nH]c4ccccc34)[nH]n2)cc1,0.163
10,O=C(CSc1nnc2nnc3ccccc3n12)N1CCOCC1,14
11,CCCc1cc(NC(=O)COC(=O)c2nccnc2N)n(-c2ccccc2)n1,0.993
12,CCn1c2ccccc2c2cc(NC(=O)c3ccc([N+](=O)[O-])cc3)ccc21,3.1
13,Cc1ccccc1OCCNC(=O)c1ccc2ccccc2n1,-15.8
14,Cc1cc(C)cc(NC(=O)CN2CCCN(S(=O)(=O)c3ccc(Br)s3)CC2)c1,9.64
15,CCOc1cccc(CN2CCCC(C(=O)c3cccc(C(F)(F)F)c3)C2)c1O (stereo not shown),-7.4
16,CC(C)NC(=O)NC(=O)COC(=O)/C=C/c1ccc2c(c1)OCO2,11.8
17,O=C(Cn1nc(-c2ccccc2)c2ccccc2c1=O)NCCN1CCOCC1,8.6
18,Cc1ccc(Nc2nc(NCc3ccco3)c3ccccc3n2)cc1.Cl,15
19,Cc1ccc(C(=O)N2CCN(c3cccc(Cl)c3)CC2)cc1C,3.72
20,CC(NCCC1(C(C)C)CCOC(C)(C)C1)c1cccs1 (stereo not shown),12.2
21,CCN(CC)c1ccc(/C=N/NC(=O)CC(C)C)cc1,-0.348
22,Nn1c(SCC(=O)NC2CCCCC2)nnc1-c1ccco1,11.1

row,SMILES,"hERG current change (%, negative = inhibition) at 1uM [%]"
1,CC(C)C1(C(C)C)OC(=O)c2ccccc21,-2.57
2,c1ccc(Nc2ccc(Nc3ccccc3)cc2)cc1,15.5
3,CC(=O)c1cccc(NC(=O)CN(c2ccccc2F)S(C)(=O)=O)c1,1.45
4,COc1ccc(CNC(=O)C(c2ccco2)N(C(=O)c2csnn2)c2cccc(C)c2C)cc1 (stereo not shown),-1.31
5,Cc1ccc(CNc2ccc3c(c2)ncn3C)cc1,-11.5
6,O=C(Oc1ccccc1Cl)c1ccccc1P(=O)(O)O,8.26
7,COc1ccc2oc(C(=O)N3CCN(c4ncccn4)CC3)c(C)c2c1,3.98
8,CC[n+]1oc(-c2ccccc2)cc1C.F[B-](F)(F)F,14
9,O=C(c1ccccc1)c1ccc2c(c1)OCCOCCOCCOCCO2,-22.4
10,CCOc1ccc(-n2c(=S)sc3c(=O)n(-c4ccc(F)cc4)c(SCC(=O)O)nc32)cc1,10
11,COc1ccc(C(=O)Nc2ncc(C)s2)cc1S(=O)(=O)N1CCCC1,8.61
12,O=C(CCCn1c(=O)[nH]c2ccccc2c1=O)Nc1ccc(F)cc1,-2
13,O=C(CSc1nc2ccccc2[nH]1)Nc1nc(-c2ccc(Br)cc2)cs1,19.2
14,COc1ccccc1N1CCN(S(=O)(=O)CCNC(=O)CCCc2ccccc2)CC1,7.98
15,COc1ccc(NC(=O)c2cc(-c3ccccn3)nc3ccccc23)cc1S(=O)(=O)N(C)C,5.14
16,CC(=O)Nc1ccc(NC(=O)Cn2c(=O)n(-c3ccc(C)cc3)c(=O)c3oc4ccccc4c32)cc1,3.22
17,O=C(Oc1ccc2cc(Br)ccc2c1)c1cccnc1,12.3
18,COc1ccc(C)cc1NC(=O)CCS(=O)(=O)c1cc2c(cc1Cl)NC(=O)CO2,4.08
19,COc1ccc(N2CCN(C(=O)Cn3cncn3)CC2)cc1,14
20,O=C(NC1CCCC1)C(=O)N(Cc1cccnc1)C(C(=O)NCC1CCCO1)c1ccco1 (stereo not shown),12.4
21,Cn1cccc1C(NC(=O)c1ccccc1)C(Cl)(Cl)Cl (stereo not shown),13.6
22,Cc1cccc(CS(=O)(=O)c2ncc(Cl)c(C(=O)NCc3ccc4c(c3)OCO4)n2)c1,4.95

row,SMILES,"hERG current change (%, negative = inhibition) at 1uM [%]"
1,COc1ccc(C(=O)N2CCCC2)cc1S(=O)(=O)N1CCC(C)CC1,11.5
2,COc1cc(NC(=S)NCCCN2CCOCC2)c(OC)cc1Cl,1.07
3,CCN1CCc2nc(NC(=O)c3cc(F)c(F)cc3Cl)sc2C1,4.07
4,O=C(O)COCC(=O)Nc1ccc(-n2nc(C(F)(F)F)cc2-c2cccs2)cc1,18.2
5,Cc1cc(-c2ccccc2)nc(N(C)NC(=O)c2c(F)cccc2F)c1S(C)(=O)=O,4.4
6,CCCC(=O)Nc1ccc(N2CCN(C(=O)CCC)CC2)cc1,2.06
7,Cc1cccc(-c2noc(-c3ccc4c(c3)OCO4)n2)c1,11.7
8,Cl.O=S1(=O)CCC(NC2CCCC2)C1 (stereo not shown),4.83
9,c1ccc(-c2nc3nc4ccccc4nc3n2CC2CCCO2)cc1 (stereo not shown),10.4
10,COc1cc(/C=C/c2ccc3cccc([N+](=O)[O-])c3n2)ccc1OCC#N,5.85
11,CC(=O)C1=C(C)NC(=O)NC1c1ccccc1OCC(=O)NCCc1ccccc1 (stereo not shown),-0.236
12,COC(=O)CS(=O)(=O)c1ccsc1C(=O)Nc1ccc(F)c(F)c1,19.1
13,CCOC(=O)c1c(NC(=O)CN2C(=O)NC3(CCC(C)CC3)C2=O)sc(C(=O)N(C)C)c1C (stereo not shown),6.86
14,COc1cccc(OC)c1C(=O)Nc1nc2ccc([N+](=O)[O-])cc2s1,16.1
15,Cc1ccc(C(O)(COC(=O)C(C)C)COC(=O)C(C)C)c(O)c1,11.5
16,O=C(COc1ccc2c3c(c(=O)oc2c1)CCC3)c1ccc2c(c1)OCO2,5.27
17,COc1ccc(OC)c(Cc2nnc(CCC(=O)NCc3ccc(C)s3)o2)c1,9.25
18,CCOC(=O)C1CCN(C(=O)c2cccnc2Oc2ccccc2)CC1,13.2
19,CCCCN(C(=O)c1ccc(N2CCCC2=O)cc1)c1c(N)n(CC(C)C)c(=O)[nH]c1=O,0.354
20,COc1ccc(OC)c(S(=O)(=O)NCCS(=O)(=O)N2CCN(c3ccccc3)CC2)c1,13.3
21,CCOc1nc(-c2ccc(Cl)cc2Cl)ccc1C#N,-3.96
22,O=C(CN1C(=O)/C(=C/c2cccc(Br)c2)SC1=S)NC1=NCCS1,15.1

row,SMILES,"hERG current change (%, negative = inhibition) at 1uM [%]"
1,Cc1cccc(NC(=O)CSc2ccc(-c3cccs3)nn2)c1C,0.51
2,CCOc1cc(-c2sc(Nc3ccc(CC)cc3)n[n+]2-c2ccccc2)ccc1OC.[Cl-],-30.9
3,Cn1ncc(C(=O)Nc2ccc(Cl)cc2)c1C(F)(F)F,7.94
4,CCC(=O)N=c1n(C)c2ccccc2n1CCOc1ccccc1,6.96
5,CC12CCC(=O)N1C(C(=O)Nc1ccccc1N1CCCCC1)CS2 (stereo not shown),5.87
6,CCOC(=O)CNc1nc(Cl)c(C#N)s1,5.12
7,COc1ccc(S(=O)(=O)N2CCC(C(=O)N[C@@H](C)C(=O)NCc3ccncc3)CC2)cc1,16.4
8,Nc1cc(-c2ccc(Br)cc2)[nH]n1,8.69
9,COc1ccccc1C(=O)Nc1cccc2nc(C)ccc12,15.3
10,c1ccc(Sc2ncnc3ccccc23)cc1,9.63
11,O=C(/C=C/c1ccccc1)c1ccccc1O,8.85
12,Cc1ccccc1Nc1nc(N)nc(CSc2nnnn2-c2ccccc2)n1,7.2
13,N#Cc1ccc(Oc2ccc(-c3cnc4ccccc4n3)cc2)cc1C#N,10.8
14,Cc1cc(C)n2c(SCC(=O)Nc3ccccc3C#N)nnc2n1,9.36
15,C=CCn1c(SCC(=O)O)nnc1-c1cccc(Cl)c1,6.86
16,COC(=O)C1CN(S(=O)(=O)c2ccc(C)cc2)CCN1S(=O)(=O)c1ccc(C)cc1 (stereo not shown),13.5
17,O=C(CNC(=O)c1cncc(Br)c1)Nc1ccc(F)c(F)c1F,8.16
18,NC1=NC[C@H](Cc2ccccc2)N1CCCCC1CCCCC1,6.23
19,O=C(CCS(=O)(=O)Cc1ccccc1)NCc1ccco1,11.1
20,COc1ccc(C(=O)c2cn[nH]c2-c2ccc(C)cc2O)cc1,13.5
21,Cc1ccc(NC(=O)[C@H](C)NC(=O)C2CCN(C(=O)[C@@H](NC(=O)OC(C)(C)C)C(C)C)CC2)cc1,10.4
22,[O-][n+]1onc2c1CCc1c-2nn(-c2ccccc2Cl)[n+]1[O-],1.46
